Assay results taken from paper PMC4336329 (PLoS ONE, 2015).
Among all 310,000 compounds or so, about 2,200 (0.71%) showed an effect of 50% or more. The effect is printed as a negative number. Some of the results follow.

What follows are compounds tested against human ether-à-go-go-related gene (hERG) potassium channel (human, UniProt Q12809) (assay: primary screen, population patch clamp on CHO cells stably expressing hERG).
Chain of human ether-à-go-go-related gene (hERG) potassium channel (Q12809 whole entry, looked up): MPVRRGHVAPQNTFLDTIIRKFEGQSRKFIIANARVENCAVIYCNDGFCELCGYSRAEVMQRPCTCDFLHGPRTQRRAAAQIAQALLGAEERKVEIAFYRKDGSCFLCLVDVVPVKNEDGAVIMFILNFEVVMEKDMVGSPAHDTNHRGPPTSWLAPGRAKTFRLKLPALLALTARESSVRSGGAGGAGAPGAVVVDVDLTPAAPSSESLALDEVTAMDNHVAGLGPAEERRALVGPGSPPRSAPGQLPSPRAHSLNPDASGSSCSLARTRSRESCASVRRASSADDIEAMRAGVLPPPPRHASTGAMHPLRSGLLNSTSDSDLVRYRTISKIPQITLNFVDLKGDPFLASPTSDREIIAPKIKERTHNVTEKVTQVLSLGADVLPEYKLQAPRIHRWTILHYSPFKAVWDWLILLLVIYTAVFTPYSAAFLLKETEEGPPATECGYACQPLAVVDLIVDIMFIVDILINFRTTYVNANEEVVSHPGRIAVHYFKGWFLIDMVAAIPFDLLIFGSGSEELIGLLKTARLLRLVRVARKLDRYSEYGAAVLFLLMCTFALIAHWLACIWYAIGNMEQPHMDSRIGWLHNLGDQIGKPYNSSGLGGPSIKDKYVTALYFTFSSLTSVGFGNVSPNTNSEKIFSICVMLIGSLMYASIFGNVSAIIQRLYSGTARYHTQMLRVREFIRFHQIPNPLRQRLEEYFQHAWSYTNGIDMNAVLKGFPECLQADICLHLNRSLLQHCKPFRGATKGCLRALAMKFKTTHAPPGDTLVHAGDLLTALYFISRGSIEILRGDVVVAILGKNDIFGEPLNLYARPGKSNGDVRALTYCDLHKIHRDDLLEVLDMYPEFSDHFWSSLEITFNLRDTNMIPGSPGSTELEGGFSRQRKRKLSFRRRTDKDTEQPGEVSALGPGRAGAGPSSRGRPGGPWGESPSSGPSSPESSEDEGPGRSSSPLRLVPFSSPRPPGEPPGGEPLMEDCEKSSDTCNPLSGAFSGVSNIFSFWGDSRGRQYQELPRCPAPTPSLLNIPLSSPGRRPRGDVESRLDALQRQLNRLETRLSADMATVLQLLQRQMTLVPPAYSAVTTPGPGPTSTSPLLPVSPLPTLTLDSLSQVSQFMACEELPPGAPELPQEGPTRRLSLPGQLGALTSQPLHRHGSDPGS

| Compound | hERG current change (%, negative = inhibition) at 1uM [%] |
| --- | --- |
| CNC(=O)NC(=O)CSc1ncc(C(F)(F)F)cc1Cl | -0.143 |
| CCn1nc(C)cc1C(=O)NC1CC(C)(C)Cc2c1cnn2-c1cccc(F)c1 (stereo not shown) | -2.13 |
| CCOCCOC(=O)C1=C(C)Nc2ccc(C)cc2S1 | 1.18 |
| COC(=O)c1nn(-c2ccc(OC)cc2)c(=O)cc1NN | 22.4 |
| CC1C/C(=N\NC(=O)c2cccnc2)CC(C)(C)C1 (stereo not shown) | 1.77 |
| CCOc1cc(CNCCO)cc(Br)c1OCc1ccc(Cl)cc1Cl.Cl | 11.4 |
| Cc1ccc(S(=O)(=O)NC(=O)NCc2ccc(F)cc2)cc1 | 8.24 |
| C/C(=N/OC(=O)c1ccccc1Br)c1ccc(C)cc1 | 21.7 |
| CC(Sc1ncnc2sccc12)C(=O)Nc1ccc(C(N)=O)cc1 (stereo not shown) | 10.5 |
| Cc1ccc(NC(=O)C(OC(=O)c2cc(C)oc2C)c2ccccc2)cc1 (stereo not shown) | 8.64 |
| CCOc1ccc(NC(=O)CCNS(=O)(=O)c2cccc3nsnc23)cc1 | 14.5 |
| COCC(=O)Nc1ccc2c(c1)OCO2 | 10.6 |
| O=C(Nc1ccccc1N1CCOCC1)c1ccc([N+](=O)[O-])o1 | -1 |
| COc1ccc(OCCOCCOc2ccc(C)cc2[N+](=O)[O-])cc1 | 5.86 |
| COc1ccc2[nH]c(=O)c(CN(Cc3ccc(C)cc3)Cc3nnnn3CC3CCCO3)cc2c1 (stereo not shown) | 9.11 |
| Cc1nc2sccn2c(=O)c1S(=O)(=O)N1CCN(c2cccc(Cl)c2)CC1 | 2.45 |
| COc1ccc(CCNC(=O)CCCC(=O)n2nc(C)c3ccccc32)cc1OC | 11.8 |
| CCCCC(=O)Nc1nnc(-c2ccc(OC)cc2)s1 | -4.02 |
| CCC1CCCCN1C(=O)COc1cccc2c1CCN(C)C2=O (stereo not shown) | 6.08 |
| Cn1c(SCC(=O)N2CCCc3ccccc32)nnc1-c1ccco1 | 11 |
| CC(=O)N1CCN(c2nc(CC(C)C)c3c(c2C#N)CCC3)CC1 | 8.43 |
| OC(CNCc1cccs1)c1ccccc1 (stereo not shown) | 15.1 |
| C=CCN1CCN(C(=O)c2cc3c(s2)CCCC3)CC1 | -1.43 |

| Compound | hERG current change (%, negative = inhibition) at 1uM [%] |
| --- | --- |
| COCCn1c(C)cc(C(=O)CSc2cc(C)c3ccccc3n2)c1C | 6.15 |
| CCCCn1c(N)c(N(CCC(C)C)C(=O)c2sc3nc4n(c(=O)c3c2C)CCC4)c(=O)[nH]c1=O | 12.5 |
| COc1ccc(-c2ccccc2)cc1NC(=O)c1cccs1 | 10.6 |
| CCOc1ccc(-n2c(SCC(N)=O)nc3c([nH]c4ccccc43)c2=O)cc1 | 8.16 |
| CC/C(=N/Nc1ccccc1)c1cnnc(-c2ccccc2)n1 | 0.406 |
| CC(C)(C)CN1C(N)=NC[C@@H]1Cc1ccc(O)cc1 | 3.77 |
| O=C(CSc1nnnn1-c1ccc(O)cc1)c1cc2ccccc2o1 | 10.4 |
| Cc1ccc2nc(NCC(=O)O)nc(-c3ccccc3)c2c1 | 8.21 |
| CS(=O)(=O)NCC(c1cccnc1)N1CCN(c2ccccc2F)CC1 (stereo not shown) | 1.52 |
| CCOC(=O)CSc1cccc2cccnc12 | 1.33 |
| COc1ccc(CNC(=O)CSc2nc3ccccc3n2C(C)=O)cc1 | 9.53 |
| CCOC(=O)NN1C(=O)c2ccccc2NC1c1cccnc1 (stereo not shown) | 0.305 |
| CC(=O)n1nc(-c2cccnc2)nc1N | -2.76 |
| O=[N+]([O-])c1ccc(Cl)c(/C=N/NC(=S)Nc2ccccc2)c1 | 22.1 |
| O=C(Nc1ccc(OC(F)(F)F)cc1)c1ccc2nc[nH]c2c1 | 3.01 |
| O=[N+]([O-])c1cc(CN2CCN(c3cccc(C(F)(F)F)c3)CC2)c2cccnc2c1O | 12.2 |
| C=CCNC(=S)NCCO | 14.1 |
| Cc1ccccc1C(=O)Nc1cc(C(F)(F)F)ccc1-n1cncn1 | 7.37 |
| O=C1NC(=O)N(c2ccc3c(c2)OCO3)C(=O)/C1=C/c1ccsc1 | 12.4 |
| CCOc1cc(/C=N/NC(=O)c2nn(C)cc2Br)ccc1OCc1ccccc1 | 7.84 |
| COc1ccc(-c2cn(Cc3ccc(C(N)=O)cc3)c(-c3ccc(Cl)nc3)n2)cc1 | -9.64 |
| C/C(=N/O)c1ccc2c(c1)OCCOCCOc1cc(/C(C)=N/O)ccc1OCCOCCO2 | -79.7 |
| CC(C)(C)OC(=O)[C@H](Cc1ccccc1)NC(=O)c1nc[nH]c1C(=O)N1CCc2ccccc2C1 | 1.91 |

| Compound | hERG current change (%, negative = inhibition) at 1uM [%] |
| --- | --- |
| O=C(O)c1[nH]c2ccccc2c1C=NCc1ccccc1Cl | 12.4 |
| CNC(=O)c1cc(Nc2nnc(C)c3ccccc23)ccc1OC | 11.2 |
| CC(=O)NC(CC(=O)O)c1ccc([N+](=O)[O-])cc1 (stereo not shown) | 16 |
| CCOc1ccc(S(=O)(=O)NC(C)C(=O)NCc2ccc3c(c2)OCO3)cc1 (stereo not shown) | 1.45 |
| Cc1ccc2ccc(S(=O)(=O)NCc3ccccn3)cc2c1 | 14.2 |
| CCn1c(=O)c(C(=O)NCCc2ccccc2)c(O)c2ccccc21 | 18 |
| CC(=O)c1ccc(OCCCC(=O)NNC(=O)c2ccccn2)cc1 | 10.1 |
| CN(C)C(CNc1ncnc2sc3c(c12)CCCCC3)c1ccco1 (stereo not shown) | 12.8 |
| COc1ccc(S(=O)(=O)N2CCOCC2)cc1NC(=O)c1ccc2c(c1)OCCO2 | 6.39 |
| COC(=O)c1ccc(OC(=O)c2ccco2)cc1 | 9.12 |
| Cc1ccc(-c2cc(C(F)(F)F)c(C#N)c(SCC(=O)O)n2)cc1 | 15.3 |
| COC(=O)c1c(/N=C/N(C)C)sc2c1CCN(c1ncc(C(F)(F)F)cc1Cl)C2 | 2.67 |
| COc1ccc2c(C(=O)CN3CCSCC3)c[nH]c2c1 | 8.2 |
| S=C(NCc1cccnc1)NCc1cccnc1 | 4.36 |
| CCCCc1c(O)nc2n(c1=O)CCS2 | 3.77 |
| CN1CCn2c1nc(N1CCCCC1)nc2=O | -0.619 |
| O=C1c2ccccc2NC(c2cccc(O)c2)N1NS(=O)(=O)c1ccccc1 (stereo not shown) | 6.25 |
| CCOc1ccc(NC(=O)CSc2nccn(-c3ccc4c(c3)OCCO4)c2=O)cc1 | 2.22 |
| CCCCNC(=O)CCCN1C(=O)c2cccnc2Sc2ccccc21 | 14.1 |
| CC(=O)C1=C(O)C(=O)N(CCC(=O)O)C1c1ccccc1[N+](=O)[O-] (stereo not shown) | 15.8 |
| CCn1c(SCC(=O)Nc2c(C#N)cnn2-c2ccccc2)nnc1-c1cccs1 | 3.24 |
| Cc1ccccc1N1C(=O)CC(=O)NC1=O | 9.05 |
| CCOC(=O)c1cn(CC(=O)Nc2cccc(Cl)c2C)nn1 | 15.4 |

| Compound | hERG current change (%, negative = inhibition) at 1uM [%] |
| --- | --- |
| [S-]c1nnc(-c2ccc(Br)cc2)n1-c1ccccc1.[Zn+2] | 15.1 |
| CCCCOc1cc(C(=O)OCCN(CC)CC)ccc1N | -28.4 |
| N#C[C@H]1C2OC2c2ccccc2N1C(=O)c1ccccc1 (stereo partly shown) | 8.79 |
| Cc1ccc(CN2CCSc3ccc(C(=O)NCCCN4CCOCC4)cc32)cc1 | 4.33 |
| COc1cccc(/C=C2\Oc3ccc(O)cc3C2=O)c1O | 10.3 |
| CCOc1ccc(CN2C(=O)c3ccccc3Sc3ccc(C(=O)NCCCN4CCOCC4)cc32)cc1 | 9.26 |
| Cc1onc(-c2ccccc2Cl)c1C(=O)Nc1ccc(S(=O)(=O)N2CCCC2)cc1 | 13.3 |
| CCN(CC)S(=O)(=O)c1cccc(-c2nnc(SCCCC(=O)c3ccc(F)cc3)o2)c1 | 8.68 |
| Cc1ccc(O)c(C(=O)c2cnn(-c3ccc(S(=O)(=O)N4CCOCC4)cc3[N+](=O)[O-])c2)c1 | 12.9 |
| Cc1ccc(SCC(=O)NCC2COc3ccccc3O2)cc1 (stereo not shown) | -0.327 |
| COc1cc(OC)c(OC)cc1CNC(C)C(O)c1ccccc1.Cl (stereo not shown) | 17.5 |
| COc1cccc(C2C3=C(N=c4s/c(=C\c5ccc(OCC(=O)O)cc5)c(=O)n42)c2ccccc2CC3)c1 (stereo not shown) | 9.38 |
| O=C(Nc1ccc(N2CCOCC2)cc1)c1ccc([N+](=O)[O-])o1 | 9.82 |
| O=[N+]([O-])c1ccc(N2CCNCC2)cc1NCc1ccco1 | -1.74 |
| Nc1cccc(-c2cn3cccnc3n2)c1 | 11.1 |
| CCCCCCCCCCSc1n[nH]c(NC(C)=O)n1 | 11.7 |
| Cc1ccc(SCCNC(=O)c2ccc(C)c([N+](=O)[O-])c2)cc1 | -5.33 |
| CN(CCC1CCOCC1)C(=O)CC1C(=O)NCCN1Cc1ccoc1 (stereo not shown) | 11.2 |
| CCOc1ccc(NC(=O)CSc2nnc(Cc3cccn3C)n2-c2ccc(F)cc2)cc1 | -14.9 |
| COc1ccc(NC(=O)N2CCCC2C(=O)Nc2ccc(C)cc2)cc1 (stereo not shown) | 1.14 |
| C=CCn1c(SCC(=O)Nc2ncc(Cc3cc(Cl)ccc3Cl)s2)nnc1-c1ccncc1 | 12 |
| O=C(NNc1cccc(Cl)n1)Nc1cccc(C(F)(F)F)c1 | 10.9 |
